In article PMC4336329 (PLoS ONE, 2015):
The whole screen tested about 310,000 compounds, of which about 2,200 (0.71%) showed an effect of 50% or more. Effects have a minus sign here. The list shows a part of the results.

target: human ether-à-go-go-related gene (hERG) potassium channel (human, UniProt Q12809); assay: primary screen, population patch clamp on CHO cells stably expressing hERG
Sequence (Q12809 whole entry, looked up): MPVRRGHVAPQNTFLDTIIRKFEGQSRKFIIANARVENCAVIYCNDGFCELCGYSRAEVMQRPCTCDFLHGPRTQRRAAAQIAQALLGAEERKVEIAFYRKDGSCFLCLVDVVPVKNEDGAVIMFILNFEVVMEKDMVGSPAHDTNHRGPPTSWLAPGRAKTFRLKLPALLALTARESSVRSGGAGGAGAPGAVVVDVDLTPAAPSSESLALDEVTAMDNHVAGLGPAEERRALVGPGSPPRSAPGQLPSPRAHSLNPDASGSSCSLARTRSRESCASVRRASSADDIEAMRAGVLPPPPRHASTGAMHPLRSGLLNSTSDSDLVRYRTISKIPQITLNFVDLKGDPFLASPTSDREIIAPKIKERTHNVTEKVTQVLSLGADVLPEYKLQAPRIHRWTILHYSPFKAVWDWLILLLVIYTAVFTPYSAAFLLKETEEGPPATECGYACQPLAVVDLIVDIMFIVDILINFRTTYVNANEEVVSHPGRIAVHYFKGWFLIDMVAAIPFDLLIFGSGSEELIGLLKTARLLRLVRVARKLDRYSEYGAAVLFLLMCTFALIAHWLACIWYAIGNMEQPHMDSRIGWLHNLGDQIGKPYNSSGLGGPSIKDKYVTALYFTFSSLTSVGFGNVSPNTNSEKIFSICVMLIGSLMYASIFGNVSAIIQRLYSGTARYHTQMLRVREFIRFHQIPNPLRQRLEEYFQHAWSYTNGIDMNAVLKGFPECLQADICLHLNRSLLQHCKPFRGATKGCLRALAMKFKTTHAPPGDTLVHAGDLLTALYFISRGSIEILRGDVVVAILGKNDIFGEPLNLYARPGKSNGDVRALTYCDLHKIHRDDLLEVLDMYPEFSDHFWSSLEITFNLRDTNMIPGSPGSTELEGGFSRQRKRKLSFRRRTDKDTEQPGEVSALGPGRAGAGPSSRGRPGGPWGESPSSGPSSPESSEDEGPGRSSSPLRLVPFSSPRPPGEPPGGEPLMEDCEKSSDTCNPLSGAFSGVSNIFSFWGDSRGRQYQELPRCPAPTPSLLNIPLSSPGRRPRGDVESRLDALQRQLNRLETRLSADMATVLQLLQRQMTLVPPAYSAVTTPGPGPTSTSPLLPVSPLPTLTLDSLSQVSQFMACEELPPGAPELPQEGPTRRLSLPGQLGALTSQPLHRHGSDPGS

Row | SMILES | hERG current change (%, negative = inhibition) at 1uM [%]
1 | CC(C)(C)C(=O)Nc1c2c(nn1-c1ccc(F)cc1)CSC2 | 12.4
2 | C=CCNC(=S)N1CCc2c([nH]c3ccccc23)C1C (centres unmarked) | 2.1
3 | CC(=O)CCC(=O)NCCc1ccccc1F | 5.68
4 | O=C(c1ccc2c3c(cccc13)CC2)N1CCOCC1 | 10.4
5 | CC(C)CC(=O)N1CCN(S(=O)(=O)c2ccc(C3CCCCC3)cc2)CC1 | 10.2
6 | Cn1cnnc1Sc1ccc(C(=O)OCC(=O)Nc2ccccc2)cc1[N+](=O)[O-] | 3.13
7 | CCOC(=O)c1cc(-c2cccc([N+](=O)[O-])c2)n[nH]1 | 3.04
8 | O=C(Nc1nnc(CCN2CCOCC2)s1)c1ccccc1 | 7.54
9 | Cn1c(CNC(=O)c2ccco2)nnc1SCC(=O)c1ccccc1 | -3.44
10 | CCCC/C(C)=C/[C@@H](NP(=O)(c1ccccc1)c1ccccc1)c1ccccc1 | 7.59
11 | C/C(=N\NC(N)=S)C1C2C3CC4C5CC(C42)C1C53 (centres unmarked) | 1.65
12 | CCOc1ccc(OCC)c(S(=O)(=O)N2CCOCC2)c1 | 11.8
13 | CN(c1cccc(NC(=O)c2ccc(CN3CCc4ccccc4C3)cc2)c1)S(C)(=O)=O | 10.2
14 | Cc1ccccc1NS(=O)(=O)c1ccc2[nH]cc(C(=O)N(C)Cc3ccco3)c(=O)c2c1 | 10.5
15 | COc1ccc([C@H]2[C@@H]3C=CCC[C@@]3(C)C(=O)N2Cc2ccccc2)cc1Cl | 16.5
16 | Cc1ccc(OCC(=O)N2CCN(S(=O)(=O)c3ccc4c(c3)OCCO4)CC2)c(C)c1 | 10
17 | Fc1ccccc1/C=N/Nc1nc2ccccc2o1 | 13.8
18 | CC(=O)c1cccc(NC(=O)c2cccc(NC(=O)c3ccco3)c2)c1 | 14.9
19 | CCCC1CCc2c(sc(NC(=O)c3cccs3)c2C(N)=O)C1 (centres unmarked) | -1.72
20 | Cc1ccc(-n2cc(CNCCCN3CCCC3=O)c(-c3ccc(F)cc3)n2)cc1 | -20.5
21 | Cc1ccc(-c2nc3ccccc3c(=O)n2-c2ccc(Br)cn2)cc1 | -3.58
22 | O=C(NCCCn1ccnc1)c1ccncc1 | -1.81

Row | SMILES | hERG current change (%, negative = inhibition) at 1uM [%]
23 | O=C(Cc1ccccc1[N+](=O)[O-])NC1CCN(Cc2ccccc2)CC1 | 10.1
24 | CCOc1ccc(N(C(=O)C2CCCO2)C2C=CS(=O)(=O)C2)cc1 (centres unmarked) | 11.8
25 | CC(C)[C@H](NS(=O)(=O)/C=C/c1ccccc1)C(=O)OCC(=O)NC(N)=O | 27
26 | CCn1c(C)[n+](CCOCC[n+]2c(C)n(CC)c3cc(Cl)c(Cl)cc32)c2cc(Cl)c(Cl)cc21.[I-] | 8.45
27 | O=C(c1ccc(OC2CCN(Cc3ccccn3)CC2)cc1)N1CCCCO1 | -7.22
28 | COc1ccc(/C=N/NS(=O)(=O)c2ccc(C)cc2)cc1OC(=O)c1ccc(C)cc1 | 13.5
29 | CC(Sc1nnc(-c2ccccc2F)n1C)C(=O)NC1CCCCC1 (centres unmarked) | 4.28
30 | Cc1ccc(NC(=O)CCn2cnc3ccccc3c2=O)cc1Cl | 8.77
31 | O=C(NCc1nc(-c2ccc(C(F)(F)F)cc2)no1)Nc1ccc(F)cc1F | 10.7
32 | CCCCCn1c(C(Cc2ccccc2)NC(C)=O)nc2ccccc21 (centres unmarked) | 10.8
33 | Cc1cc2c(cc1S(=O)(=O)N1CCCCC1)OCC(=O)N2 | 7.82
34 | Cc1ccc(OCC(=O)n2nc(C)cc2C)c(C)c1 | 15.8
35 | Cc1nn(C)c(C)c1S(=O)(=O)N(CC(=O)NC1CCCCCC1)c1ccc(C(C)C)cc1 | 2
36 | CC(=O)Nc1cccc(NC(=O)CSc2nn3c(=O)c(C)nnc3s2)c1 | 12.4
37 | CC(=O)Nc1ccc(S(=O)(=O)Oc2cccc(N3C(=O)C4CCCCC4C3=O)c2)cc1 (centres unmarked) | -1.48
38 | CCSP1(=S)N=C(N2CCOCC2)C(C#N)=C2CCCN21 (centres unmarked) | 0.832
39 | CCOCCCNC(=O)c1cc2c(=O)n3cccc(C)c3nc2s1 | 10.7
40 | Cc1nnc2n1NC(c1ccc(Cl)cc1)C(C(=O)N(C)C1CCCCC1)S2 (centres unmarked) | -4.55
41 | O=C(O)c1ccc(Cl)c(S(=O)(=O)Nc2ccccc2Cc2ccccc2)c1 | 15.4
42 | CC(O)C(NS(=O)(=O)c1ccc(Cl)cc1)C(=O)OCc1nnc(-c2ccccc2)o1 (centres unmarked) | 2.11
43 | O=C(CN(CC1CCCO1)C(=O)CNS(=O)(=O)c1ccc(F)cc1)NC1CCCC1 (centres unmarked) | 12
44 | Cc1ccn2cc(CNC(=O)c3cccs3)nc2c1 | 10.5

Row | SMILES | hERG current change (%, negative = inhibition) at 1uM [%]
45 | c1ccc(CN2C3=NCCN3c3ccccc32)cc1 | 2.38
46 | Cc1cc(C)cc(NS(=O)(=O)c2ccc3oc(=O)ccc3c2)c1 | -13.4
47 | Cc1nnc(NC(=O)C23CC4CC(C)(CC(C)(C4)C2)C3)s1 | 18.5
48 | N=c1c2c3c(sc2ncn1CCCO)CCCC3 | -3.83
49 | Cc1cccc(NS(=O)(=O)c2ccc3c(c2)CCN3C(=O)CCC(=O)O)c1 | 18.6
50 | COc1ccc(/C=N/N=C2/NC(=O)C(CC(=O)NC(C)C)S2)cc1 (centres unmarked) | 5.58
51 | COC(=O)C1CSC(C(=O)OC)N1C(=O)CN1CCN(c2ccccc2)CC1 (centres unmarked) | 17.2
52 | Cc1occc1-c1nnc(SCC(=O)N2c3ccccc3CCc3ccccc32)n1C | 8.53
53 | CCO.CN1CCC2(CC1)C1CN(C)CC=C1C(C#N)=C(N)C2(C#N)C#N.O (centres unmarked) | 5.51
54 | O=C(Cc1ccccc1)NCC(=O)OCc1ccc([N+](=O)[O-])cc1 | 3.3
55 | COc1ccc(NC(=O)CSCc2cc(=O)n3ccsc3n2)cc1 | 13.4
56 | CC(=O)c1c(-c2ccc(C)cc2)nc2c3ccccc3ccn12 | 13.7
57 | Cc1cnn(-c2cc(N/N=C/c3ccccc3Cl)ncn2)c1 | 15.2
58 | CC(C(=O)O)n1nnc2ccccc21 (centres unmarked) | 10.7
59 | COC(=O)COC(=O)c1ccc(O)cc1 | -12.9
60 | CCOC(=O)C1=C(CSc2nc(-c3ccncc3)ccc2C#N)OC(N)=C(C#N)C1c1ccc(OC)cc1 (centres unmarked) | 2.15
61 | CCSc1ccc([C@@H]2[C@@H]3C(=O)N(CC)C(=O)[C@@H]3[C@]3(C(=O)OC)CCCCN23)cc1.O=C(O)C(F)(F)F | 7.91
62 | O=C(Nc1ccc2c(c1)OCCO2)C1CCCN(c2ncccn2)C1 (centres unmarked) | 9.02
63 | COc1cccc(-c2ccc3ncnc(NCc4cccc(C)c4)c3c2)c1 | 5.75
64 | O=C(OCC(=O)N1CCOCC1)c1ccc[nH]c1=O | 7.16
65 | COC(C(=O)Nc1ccc(S(=O)(=O)Nc2ccc(F)cc2)cc1)c1ccccc1 (centres unmarked) | 7.53
66 | CCN1CCc2c(sc(NC(=O)c3ccc(S(=O)(=O)N4CCCCCC4)cc3)c2C(=O)NC)C1 | 7.02

Row | SMILES | hERG current change (%, negative = inhibition) at 1uM [%]
67 | CCC(C)NC(=O)C1c2cc(OC)c(OC)cc2C(=O)N(C)C1c1cccs1 (centres unmarked) | 5.1
68 | CCC1=NN2C(=N)/C(=C\c3ccc(OCCOc4ccc(NC(C)=O)cc4)c(OC)c3)C(=O)N=C2S1 | 22.6
69 | Cl.N#CC(c1ccccc1)C1CCN(Cc2ccccc2)CC1 (centres unmarked) | -13.2
70 | C/C=C/c1ccc(OCC(O)CN2CCCCCCC2)c(OC)c1 (centres unmarked) | -6.44
71 | Cc1ccc(C(CNS(=O)(=O)c2ccc([N+](=O)[O-])cc2)N2CCN(C)CC2)cc1 (centres unmarked) | -49.1
72 | O=[N+]([O-])c1ccc(N/N=C/c2c[nH]c3ccccc23)cc1 | 12.3
73 | O=C(c1ccc([N+](=O)[O-])s1)N1CCN(c2cccc(Cl)c2)CC1 | -10.9
74 | Cc1c(Br)c([N+](=O)[O-])nn1C(C)C(=O)Nc1c(C)n(C)n(-c2ccccc2)c1=O (centres unmarked) | 0.944
75 | O=C1N2CCSC2=NC1(NS(=O)(=O)c1ccccc1)C(F)(F)F (centres unmarked) | 1.48
76 | CC(=O)c1cc(C(=O)N2CCc3c([nH]c4ccccc34)C2CC(C)C)[nH]n1 (centres unmarked) | 14.5
77 | COc1ccc(CSc2nncn2N)cc1[N+](=O)[O-] | 14.2
78 | C=CCNc1nc(Nc2ccc([N+](=O)[O-])cc2)nc(OCC)n1 | 12
79 | CCCOc1ccc(C(=O)NCC(c2ccco2)N(C)C)cc1OC (centres unmarked) | 7.23
80 | COc1ccccc1NC(=O)C1CCN(C(=O)c2ccco2)CC1 | 19.8
81 | O=C(Nc1cccc(-c2csc(-c3ccccc3)n2)c1)c1cccs1 | 9.82
82 | COCCNC(=O)c1sc2ncn(CC(=O)Nc3ccc(C)c(Cl)c3)c(=O)c2c1C | 14.8
83 | Cc1cc([N+](=O)[O-])ccc1NCc1ccc2ccccc2c1 | 13.8
84 | Cc1cc2ncn(CCOc3ccccc3C#N)c2cc1C | -4
85 | C#CCOCCOCCOCCNc1nc(N2CCN(C(=O)C([C@@H](C)CC)n3cc(C(N)CC(C)C)nn3)CC2)nc(N2CCN(C(=O)[C@H](CCC(=O)O)n3cc(C(N)[C@H](C)CC)nn3)CC2)n1.Cl (some centres unmarked) | 16.6
86 | Cc1ccccc1Cn1nc(C)c(NC(=O)c2noc3c2CC(C(C)(C)C)CC3)c1C (centres unmarked) | 11.7
